# Publication PMC12820563, “FoxP3 forms a head-to-head dimer in vivo and stabilizes its multimerization on adjacent microsatellites”
# The other results are listed elsewhere or left out.
# Target: T1, MBP-FoxP1dN (Mus musculus, UniProt P58462 326-579)
# T1 sequence: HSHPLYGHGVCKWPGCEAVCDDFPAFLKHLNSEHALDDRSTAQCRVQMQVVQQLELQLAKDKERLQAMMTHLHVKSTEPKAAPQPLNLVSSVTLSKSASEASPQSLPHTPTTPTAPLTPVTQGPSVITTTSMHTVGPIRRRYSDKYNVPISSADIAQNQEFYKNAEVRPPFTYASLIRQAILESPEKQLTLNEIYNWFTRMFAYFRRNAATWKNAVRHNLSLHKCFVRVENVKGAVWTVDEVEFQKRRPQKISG
# Experiment: PD-seq (MBP pull-down with sequencing); 20 mM Tris-HCl pH 7.5, 100 mM NaCl, 1.5 mM MgCl2, 0.4 uM protein, 0.1 uM dsDNA library, 30 min, room temperature, amylose pull-down; high values mean tight binding
# Conditions: protein: recombinant; tags: His6-MBP; chain copies: 2; dsDNA, one strand shown
# Outline: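 His6-MBP-tagged mouse FoxP3 or FoxP1 fragment lacking the N-terminus, expressed in E. coli, was mixed at 0.4 µM with 0.1 µM Klenow-filled double-stranded degenerate DNA library. Incubation was 30 min at room temperature in Tris pH 7.5 buffer with NaCl and MgCl2. Complexes were caught on amylose resin and washed three times; DNA was released with proteinase K, PCR-barcoded and Illumina-sequenced. Binding is reads-per-million enrichment, pull-down over input, with replicates pooled.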
row,Sequence,binding signal
1,GATGATTGTTCTCCCAGCTGATGAATTGCACGTGTCGAGTAAACAAATTTTCCTAATCTTTCTGTTCAAGCGCCATCTAC,1.21 RPM ratio (pull-down/input)
2,GATGATTGTTCTCCCAGCTGATGAATTCTGGTTATCGAGTAAACAAATTTTCCTAATCTTTCTGTTCAAGCGCCATCTAC,0.931 RPM ratio (pull-down/input)
3,GATGATTGTTCTCCCAGCTGATGAATTCAAAAGATCGAGTAAACAAATTTTCCTAATCTTTCTGTTCAAGCGCCATCTAC,0.845 RPM ratio (pull-down/input)
4,GATGATTGTTCTCCCAGCTGATGAATTCCTATGGTCGAGTAAACAAATTTTCCTAATCTTTCTGTTCAAGCGCCATCTAC,0.848 RPM ratio (pull-down/input)
5,GATGATTGTTCTCCCAGCTGATGAATTACAACGTTCGAGTAAACAAATTTTCCTAATCTTTCTGTTCAAGCGCCATCTAC,1.24 RPM ratio (pull-down/input)
6,GATGATTGTTCTCCCAGCTGATGAATTGAGCCGTTCGAGTAAACAAATTTTCCTAATCTTTCTGTTCAAGCGCCATCTAC,0.812 RPM ratio (pull-down/input)
7,GATGATTGTTCTCCCAGCTGATGAATTTCTGCTTTCGAGTAAACAAATTTTCCTAATCTTTCTGTTCAAGCGCCATCTAC,1.27 RPM ratio (pull-down/input)
8,GATGATTGTTCTCCCAGCTGATGAATTGGCGGGCTCGAGTAAACAAATTTTCCTAATCTTTCTGTTCAAGCGCCATCTAC,0.734 RPM ratio (pull-down/input)
9,GATGATTGTTCTCCCAGCTGATGAATTCGTTTAATCGAGTAAACAAATTTTCCTAATCTTTCTGTTCAAGCGCCATCTAC,0.974 RPM ratio (pull-down/input)
10,GATGATTGTTCTCCCAGCTGATGAATTGTGGAAATCGAGTAAACAAATTTTCCTAATCTTTCTGTTCAAGCGCCATCTAC,1.12 RPM ratio (pull-down/input)
11,GATGATTGTTCTCCCAGCTGATGAATTTCTGGACTCGAGTAAACAAATTTTCCTAATCTTTCTGTTCAAGCGCCATCTAC,0.827 RPM ratio (pull-down/input)
12,GATGATTGTTCTCCCAGCTGATGAATTTGATCAATCGAGTAAACAAATTTTCCTAATCTTTCTGTTCAAGCGCCATCTAC,0.968 RPM ratio (pull-down/input)
13,GATGATTGTTCTCCCAGCTGATGAATTGTGACGTTCGAGTAAACAAATTTTCCTAATCTTTCTGTTCAAGCGCCATCTAC,1.19 RPM ratio (pull-down/input)
14,GATGATTGTTCTCCCAGCTGATGAATTTGACTGGTCGAGTAAACAAATTTTCCTAATCTTTCTGTTCAAGCGCCATCTAC,0.789 RPM ratio (pull-down/input)
15,GATGATTGTTCTCCCAGCTGATGAATTAGAGCAGTCGAGTAAACAAATTTTCCTAATCTTTCTGTTCAAGCGCCATCTAC,0.822 RPM ratio (pull-down/input)
16,GATGATTGTTCTCCCAGCTGATGAATTTACGCCGTCGAGTAAACAAATTTTCCTAATCTTTCTGTTCAAGCGCCATCTAC,1.17 RPM ratio (pull-down/input)
17,GATGATTGTTCTCCCAGCTGATGAATTCGGGTAATCGAGTAAACAAATTTTCCTAATCTTTCTGTTCAAGCGCCATCTAC,1.18 RPM ratio (pull-down/input)
18,GATGATTGTTCTCCCAGCTGATGAATTCGATTCCTCGAGTAAACAAATTTTCCTAATCTTTCTGTTCAAGCGCCATCTAC,0.749 RPM ratio (pull-down/input)
19,GATGATTGTTCTCCCAGCTGATGAATTCGATGCCTCGAGTAAACAAATTTTCCTAATCTTTCTGTTCAAGCGCCATCTAC,0.933 RPM ratio (pull-down/input)
20,GATGATTGTTCTCCCAGCTGATGAATTGTGTCTGTCGAGTAAACAAATTTTCCTAATCTTTCTGTTCAAGCGCCATCTAC,1.09 RPM ratio (pull-down/input)
21,GATGATTGTTCTCCCAGCTGATGAATTGTAGTCATCGAGTAAACAAATTTTCCTAATCTTTCTGTTCAAGCGCCATCTAC,1.14 RPM ratio (pull-down/input)

row,Sequence,binding signal
1,GATGATTGTTCTCCCAGCTGATGAATTGTGAACGTCGAGTAAACAAATTTTCCTAATCTTTCTGTTCAAGCGCCATCTAC,0.982 RPM ratio (pull-down/input)
2,GATGATTGTTCTCCCAGCTGATGAATTTGGGCAGTCGAGTAAACAAATTTTCCTAATCTTTCTGTTCAAGCGCCATCTAC,0.806 RPM ratio (pull-down/input)
3,GATGATTGTTCTCCCAGCTGATGAATTAAACAACTCGAGTAAACAAATTTTCCTAATCTTTCTGTTCAAGCGCCATCTAC,1.84 RPM ratio (pull-down/input)
4,GATGATTGTTCTCCCAGCTGATGAATTCGATTAATCGAGTAAACAAATTTTCCTAATCTTTCTGTTCAAGCGCCATCTAC,0.949 RPM ratio (pull-down/input)
5,GATGATTGTTCTCCCAGCTGATGAATTATTAAAGTCGAGTAAACAAATTTTCCTAATCTTTCTGTTCAAGCGCCATCTAC,1.1 RPM ratio (pull-down/input)
6,GATGATTGTTCTCCCAGCTGATGAATTGGAGTCCTCGAGTAAACAAATTTTCCTAATCTTTCTGTTCAAGCGCCATCTAC,0.777 RPM ratio (pull-down/input)
7,GATGATTGTTCTCCCAGCTGATGAATTACGTCCATCGAGTAAACAAATTTTCCTAATCTTTCTGTTCAAGCGCCATCTAC,1.05 RPM ratio (pull-down/input)
8,GATGATTGTTCTCCCAGCTGATGAATTGTGTTTCTCGAGTAAACAAATTTTCCTAATCTTTCTGTTCAAGCGCCATCTAC,1.6 RPM ratio (pull-down/input)
9,GATGATTGTTCTCCCAGCTGATGAATTCTCCCAATCGAGTAAACAAATTTTCCTAATCTTTCTGTTCAAGCGCCATCTAC,0.958 RPM ratio (pull-down/input)
10,GATGATTGTTCTCCCAGCTGATGAATTTATCTCATCGAGTAAACAAATTTTCCTAATCTTTCTGTTCAAGCGCCATCTAC,1.3 RPM ratio (pull-down/input)
11,GATGATTGTTCTCCCAGCTGATGAATTGTGTCCATCGAGTAAACAAATTTTCCTAATCTTTCTGTTCAAGCGCCATCTAC,1.16 RPM ratio (pull-down/input)
12,GATGATTGTTCTCCCAGCTGATGAATTACTCTGTTCGAGTAAACAAATTTTCCTAATCTTTCTGTTCAAGCGCCATCTAC,1.04 RPM ratio (pull-down/input)
13,GATGATTGTTCTCCCAGCTGATGAATTCTTGAATTCGAGTAAACAAATTTTCCTAATCTTTCTGTTCAAGCGCCATCTAC,0.939 RPM ratio (pull-down/input)
14,GATGATTGTTCTCCCAGCTGATGAATTTTTCTCCTCGAGTAAACAAATTTTCCTAATCTTTCTGTTCAAGCGCCATCTAC,0.892 RPM ratio (pull-down/input)
15,GATGATTGTTCTCCCAGCTGATGAATTGAGCCTATCGAGTAAACAAATTTTCCTAATCTTTCTGTTCAAGCGCCATCTAC,0.845 RPM ratio (pull-down/input)
16,GATGATTGTTCTCCCAGCTGATGAATTCTTGGAATCGAGTAAACAAATTTTCCTAATCTTTCTGTTCAAGCGCCATCTAC,0.843 RPM ratio (pull-down/input)
17,GATGATTGTTCTCCCAGCTGATGAATTCCATACGTCGAGTAAACAAATTTTCCTAATCTTTCTGTTCAAGCGCCATCTAC,0.88 RPM ratio (pull-down/input)
18,GATGATTGTTCTCCCAGCTGATGAATTCTCTGGTTCGAGTAAACAAATTTTCCTAATCTTTCTGTTCAAGCGCCATCTAC,0.858 RPM ratio (pull-down/input)
19,GATGATTGTTCTCCCAGCTGATGAATTCTGCCCTTCGAGTAAACAAATTTTCCTAATCTTTCTGTTCAAGCGCCATCTAC,0.806 RPM ratio (pull-down/input)
20,GATGATTGTTCTCCCAGCTGATGAATTCGCTTAGTCGAGTAAACAAATTTTCCTAATCTTTCTGTTCAAGCGCCATCTAC,0.813 RPM ratio (pull-down/input)
21,GATGATTGTTCTCCCAGCTGATGAATTTCCGGCTTCGAGTAAACAAATTTTCCTAATCTTTCTGTTCAAGCGCCATCTAC,0.773 RPM ratio (pull-down/input)

row,Sequence,binding signal
1,GATGATTGTTCTCCCAGCTGATGAATTGGAGCGTTCGAGTAAACAAATTTTCCTAATCTTTCTGTTCAAGCGCCATCTAC,0.874 RPM ratio (pull-down/input)
2,GATGATTGTTCTCCCAGCTGATGAATTAACAATCTCGAGTAAACAAATTTTCCTAATCTTTCTGTTCAAGCGCCATCTAC,1.19 RPM ratio (pull-down/input)
3,GATGATTGTTCTCCCAGCTGATGAATTGAGACAATCGAGTAAACAAATTTTCCTAATCTTTCTGTTCAAGCGCCATCTAC,1.17 RPM ratio (pull-down/input)
4,GATGATTGTTCTCCCAGCTGATGAATTAGCGGGGTCGAGTAAACAAATTTTCCTAATCTTTCTGTTCAAGCGCCATCTAC,0.83 RPM ratio (pull-down/input)
5,GATGATTGTTCTCCCAGCTGATGAATTTACAACTTCGAGTAAACAAATTTTCCTAATCTTTCTGTTCAAGCGCCATCTAC,1.38 RPM ratio (pull-down/input)
6,GATGATTGTTCTCCCAGCTGATGAATTCGTACGGTCGAGTAAACAAATTTTCCTAATCTTTCTGTTCAAGCGCCATCTAC,0.892 RPM ratio (pull-down/input)
7,GATGATTGTTCTCCCAGCTGATGAATTTCCCACCTCGAGTAAACAAATTTTCCTAATCTTTCTGTTCAAGCGCCATCTAC,0.829 RPM ratio (pull-down/input)
8,GATGATTGTTCTCCCAGCTGATGAATTGCAAGTATCGAGTAAACAAATTTTCCTAATCTTTCTGTTCAAGCGCCATCTAC,1.29 RPM ratio (pull-down/input)
9,GATGATTGTTCTCCCAGCTGATGAATTTAACCTTTCGAGTAAACAAATTTTCCTAATCTTTCTGTTCAAGCGCCATCTAC,0.911 RPM ratio (pull-down/input)
10,GATGATTGTTCTCCCAGCTGATGAATTCGGGGCTTCGAGTAAACAAATTTTCCTAATCTTTCTGTTCAAGCGCCATCTAC,0.802 RPM ratio (pull-down/input)
11,GATGATTGTTCTCCCAGCTGATGAATTAAGGAGCTCGAGTAAACAAATTTTCCTAATCTTTCTGTTCAAGCGCCATCTAC,0.828 RPM ratio (pull-down/input)
12,GATGATTGTTCTCCCAGCTGATGAATTAATCAGCTCGAGTAAACAAATTTTCCTAATCTTTCTGTTCAAGCGCCATCTAC,0.867 RPM ratio (pull-down/input)
13,GATGATTGTTCTCCCAGCTGATGAATTTTGACAGTCGAGTAAACAAATTTTCCTAATCTTTCTGTTCAAGCGCCATCTAC,0.923 RPM ratio (pull-down/input)
14,GATGATTGTTCTCCCAGCTGATGAATTTAGCGTGTCGAGTAAACAAATTTTCCTAATCTTTCTGTTCAAGCGCCATCTAC,0.999 RPM ratio (pull-down/input)
15,GATGATTGTTCTCCCAGCTGATGAATTGTTCAACTCGAGTAAACAAATTTTCCTAATCTTTCTGTTCAAGCGCCATCTAC,1.17 RPM ratio (pull-down/input)
16,GATGATTGTTCTCCCAGCTGATGAATTGCGGCGTTCGAGTAAACAAATTTTCCTAATCTTTCTGTTCAAGCGCCATCTAC,0.991 RPM ratio (pull-down/input)
17,GATGATTGTTCTCCCAGCTGATGAATTCGACCAATCGAGTAAACAAATTTTCCTAATCTTTCTGTTCAAGCGCCATCTAC,0.947 RPM ratio (pull-down/input)
18,GATGATTGTTCTCCCAGCTGATGAATTTACACATTCGAGTAAACAAATTTTCCTAATCTTTCTGTTCAAGCGCCATCTAC,1.6 RPM ratio (pull-down/input)
19,GATGATTGTTCTCCCAGCTGATGAATTAGGGCATTCGAGTAAACAAATTTTCCTAATCTTTCTGTTCAAGCGCCATCTAC,1.1 RPM ratio (pull-down/input)
20,GATGATTGTTCTCCCAGCTGATGAATTGTACAGATCGAGTAAACAAATTTTCCTAATCTTTCTGTTCAAGCGCCATCTAC,0.911 RPM ratio (pull-down/input)
21,GATGATTGTTCTCCCAGCTGATGAATTTGGTTGCTCGAGTAAACAAATTTTCCTAATCTTTCTGTTCAAGCGCCATCTAC,0.997 RPM ratio (pull-down/input)
